Data published in the supplement of paper PMC11880418.
Counter-ions that a name gives are not always drawn. Some of the results follow. The data scatter; read single values as rough.

Experiments:
Assay in all cases: ALDHbr (CSC) cell proportion score relative to DMSO vehicle (ratio to DMSO); breast (SUM159) / gastric (MKN45) / pancreatic (PANC1) / colon cancer lines; ALDHbr cells have high ALDH activity and are rich in cancer stem cells (CSC); higher = more CSC (ALDHbr) cells remaining
Conditions in all cases: 10 µM; 72 h
[1] = tested on: MKN45
[2] = tested on: PANC1
[3] = tested on: SUM159
[4] = tested on: T84
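Further: High-content imaging of ALDEFLUOR-stained cells with Hoechst-labelled nuclei in 384-well plates, triplicate wells, scored as Z-score against 0.1% DMSO vehicle, negative meaning fewer ALDHbr cells.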

| Structure (SMILES) | ALDHbr [1] | ALDHbr [2] | ALDHbr [3] | ALDHbr [4] |
| --- | --- | --- | --- | --- |
| COc1cc(-c2ccc(=O)[nH]n2)ccc1OC(F)F [Zardaverine] | 1.01 | 0.705 | 1.25 | 0.902 |
| CCc1cccc(CC)c1NC(=O)CN(CC(=O)O)CC(=O)O [Etifenin] | 0.932 | 0.945 | 1.05 | 1.03 |
| c1ccc2c(c1)CCCC2C1=NCCN1 (centres undefined) [Tetrahydrozoline hydrochloride] | 1.02 | 0.889 | 0.846 | 0.989 |
| Brc1c(NC2=NCCN2)ccc2nccnc12 [Brimonidine L-Tartrate] | 1.02 | 0.955 | 0.893 | 0.959 |
| N[C@@H](Cc1cc(I)c(Oc2ccc(O)c(I)c2)c(I)c1)C(=O)O [Liothyronine] | 0.859 | 0.871 | 0.661 | 0.882 |
| NC(N)=Nc1nc(CSCC/C(N)=N/S(N)(=O)=O)cs1 [Famotidine] | 0.978 | 0.741 | 1.02 | 0.846 |
| O=C1CCc2ccc(OCCCCN3CCN(c4cccc(Cl)c4Cl)CC3)cc2N1 [Aripiprazole] | 0.621 | 0.603 | 0.783 | 0.622 |
| O=C(NCCN1CCOCC1)c1ccc(Cl)cc1 [Moclobemide] | 0.992 | 0.992 | 1.11 | 1.04 |
| C[C@H](CS)C(=O)N1CCC[C@H]1C(=O)O [Captopril] | 0.927 | 0.912 | 0.964 | 0.932 |
| OCCN(CCO)c1nc(N2CCCCC2)c2nc(N(CCO)CCO)nc(N3CCCCC3)c2n1 [Dipyridamole] | 0.661 | 0.736 | 0.589 | 0.977 |
| CN1CCN2c3ccccc3Cc3ccccc3C2C1 (centres undefined) [Mianserine hydrochloride] | 0.802 | 1.05 | 0.699 | 1.01 |
